Measured values from PubChem BioAssay AID652104 (National Center for Advancing Translational Sciences (NCATS), 2013).
About 7,200 (1.8%) of roughly 410,000 compounds were called active. This list was built around the results that the source calls inconclusive (neither active nor inactive); the mix of calls is not that of the screen. The call rests on the fitted dose curve; in most records, active means well fitted activation curve with a large enough effect; inconclusive means small, poorly fitted or top-dose-only effect, or another doubt; inactive means no such curve, though single readings can be large or run the other way. Potencies of inconclusive entries are left out as doubtful fits.

assay: qHTS of TDP-43 Inhibitors; settings: TDP-43 expressing yeast growth rescue, BacTiter-Glo, 24 h; growth rescue (activation): at 46.1 µM (top of the series) unless noted; further: nearly all actives have a fitted effect of over 50% in size; on growth rescue (activation): % of control where 0% means no effect
Outline: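 Yeast expressing TDP-43 (pregrown in raffinose, seeded at OD600=0.02 in galactose medium) exposed to compounds 24 hr at 30 deg C. Growth read by BacTiter-Glo luminescence; rescue of toxicity appears as increased signal.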
Potency means the concentration at half of the fitted maximal effect; tags describe the fitted curve by direction and shape.

Q: With `O=C(NCc1ccc2c(c1)OCO2)c1cc([N+](=O)[O-])ccc1N1CCCCC1` as the molecule, how does the Potency read?
A: Its Potency is active: 20 µM.

Q: With `COc1ccc(OCCCC(=O)ON=C(N)c2ccccc2Cl)cc1` as the molecule, how does the Potency read?
A: Its Potency is active: 10 µM.

Q: For `CCN(CC)C(=O)CSc1nnc([C@H](Cc2c[nH]c3ccccc23)NC(=O)OC(C)(C)C)o1`, which Potency is on record?
A: The Potency was inconclusive [activator, partial curve, poor fit].

Q: Which Potency does the source give for `COc1ccc(/C=C/C(=O)OCC(=O)NCc2cccs2)cc1OC` here?
A: The Potency was inconclusive [activator, partial curve].

Q: For `Cc1ccc(CCNC(=O)CCSCc2ccccc2F)cc1`, which Potency is on record?
A: Its Potency is inconclusive [activator, partial curve].

Q: For `Cc1nc(C)c(-c2ccc(SCc3ccccc3F)nn2)s1`, which Potency is on record?
A: The Potency was inconclusive [activator, partial curve].

Q: For `COC(=O)N/N=C/c1ccc(-c2cccc(Cl)c2)o1`, which Potency is on record?
A: Its Potency is inconclusive [activator, partial curve].

Q: For `Cc1ccc(NC(=O)C(Nc2cccc(C)c2)c2ccccc2)cc1` (centres undefined), which Potency is on record?
A: The Potency was inconclusive [activator, single point].

Q: Which Potency does the source give for `COc1ccc(CNC(=O)c2cc3sccc3n2C)cc1` here?
A: Its Potency is active: 35.5 µM.

Q: For `COc1ccc2oc(C(=O)N3CCN(S(=O)(=O)c4ccc(F)cc4)CC3)c(C)c2c1`, which Potency is on record?
A: The Potency was inconclusive [activator, single point].

Q: For `Cc1ccc(C)c(N2CCN(C(=O)C3CCN(Cc4nc(-c5cccc(Cl)c5)oc4C)CC3)CC2)c1`, which “growth rescue (activation)” value is on record?
A: The value was inactive: -10.8%.

Q: For `CCOC(=O)c1c(NC(=O)CSc2nnc3c(Cl)cc(Cl)cn23)sc2c1CCC2`, which Potency is on record?
A: The Potency was inconclusive [activator, single point].

Q: For `O=C1C=C(c2ccccc2)OC(c2ccccc2)O1` (centres undefined), which Potency is on record?
A: Its Potency is active: 12.6 µM.

Q: With `CCOc1ccc(C(C)NC(=S)NCc2ccc(Cl)cc2)cc1` (centres undefined) as the molecule, how does the “growth rescue (activation)” value read?
A: The value was inactive: 4.87%.

Q: For `COc1ccc(CN(C(=O)Nc2ccccc2)c2ccccn2)cc1OC`, which Potency is on record?
A: The Potency was inconclusive [activator, partial curve].

Q: For `Fc1ccc(-c2cc(C(F)(F)C(F)F)[nH]n2)cc1`, which Potency is on record?
A: Its Potency is inconclusive [activator, single point].

Q: With `Cc1ccc2oc(C(=O)Nc3c(C(=O)c4ccc(C)c(F)c4)oc4ccccc34)cc(=O)c2c1` as the molecule, how does the Potency read?
A: The Potency was inconclusive [activator, partial curve, poor fit].

Q: For `O=C1CC(N2CCOCC2)C(=O)N1c1ccccc1Cl` (centres undefined), which Potency is on record?
A: Its Potency is inconclusive [activator, single point].

Q: Which “growth rescue (activation)” value does the source give for `CCOC(=O)N1CCc2c(sc3c2c(=O)n(Cc2ccccc2)c(=O)n3CC(=O)Nc2ccccc2F)C1` here?
A: The value was inactive: -0.161%.

Q: With `O=C(c1ccccc1Cl)c1c(O)c2ccccc2oc1=O` as the molecule, how does the “growth rescue (activation)” value read?
A: The value was inactive: -10.7%.

Q: Which Potency does the source give for `NCCCCCCNS(=O)(=O)c1cccc2c(Cl)cccc12` here?
A: Its Potency is inconclusive [activator, full curve, poor fit].

Q: Which “growth rescue (activation)” value does the source give for `N#Cc1ncc(-c2ccc3c(c2)OCCOCCOCCOCCOCCO3)nc1C#N` here?
A: Its value is inactive: 11.9%.

Q: With `O=C(NCCN1C(=O)S/C(=C\c2cccc(Cl)c2Cl)C1=O)C1=COCCO1` as the molecule, how does the Potency read?
A: Its Potency is active: 3.98 µM.

Q: For `COc1ccc(CNc2nc(-c3ccc(OC)c(OC)c3)cc(C(F)(F)F)n2)cc1`, which Potency is on record?
A: The Potency was inconclusive [activator, partial curve].

Q: For `COc1cc2c(ccc3cc(OC)c(OC)c(O)c32)cc1O`, which Potency is on record?
A: Its Potency is inconclusive [activator, partial curve].

Q: For `O=C(CNC(=O)c1nc[nH]c1C(=O)NCc1ccccc1)OCc1ccccc1`, which Potency is on record?
A: Its Potency is inconclusive [activator, partial curve].

Q: For `COc1ccc(-c2coc3cc(OC(C)=O)ccc3c2=S)cc1`, which Potency is on record?
A: The Potency was inconclusive [activator, single point].

Q: For `Cc1ccc(CNS(=O)(=O)c2cccc3nsnc23)cc1`, which Potency is on record?
A: Its Potency is inconclusive [activator, partial curve].

Q: For `O=C(CSc1nnc(COc2ccccc2)n1-c1ccccc1)c1ccccc1`, which Potency is on record?
A: Its Potency is inconclusive [activator, single point].

Q: For `CCOCCCNC(=O)N1CCN(S(=O)(=O)c2ccc3c(ccn3C)c2)CC1`, which “growth rescue (activation)” value is on record?
A: The value was inactive: -13.8%.

Q: For `Cc1ccc(NC(=O)c2ccccc2N(C)S(=O)(=O)c2ccccc2)c(C)c1`, which Potency is on record?
A: Its Potency is inconclusive [activator, single point].

Q: With `O=C(NC(=S)Nc1ccccc1N1CCOCC1)c1cccs1` as the molecule, how does the Potency read?
A: The Potency was inconclusive [activator, partial curve].

Q: With `CCOC(=O)c1c(CC(C)C)csc1NC=O` as the molecule, how does the Potency read?
A: Its Potency is inconclusive [activator, partial curve].

Q: With `CCOc1cc(/C=N\NC(=O)CC(=O)NCCc2ccccc2)ccc1O` as the molecule, how does the growth rescue (activation) read?
A: Its growth rescue (activation) is inactive: 4.19% [at 9.22 µM].

Q: For `CC(Oc1ccc(Cl)cc1Cl)C(=O)Nc1ccc(O)cc1` (centres undefined), which Potency is on record?
A: The Potency was inconclusive [activator, single point].

Q: With `CCCSc1ncc(Cl)c(C(=O)Nc2ccc(CC)cc2)n1` as the molecule, how does the Potency read?
A: Its Potency is inconclusive [activator, single point].

Q: With `Oc1cccc(Nc2nc(-c3ccccc3)nc3ccccc23)c1` as the molecule, how does the Potency read?
A: Its Potency is “inactive”.

Q: Which Potency does the source give for `COc1ccc(CC(=O)Nc2nc(-c3ccc(F)c(F)c3)cs2)cc1OC` here?
A: The Potency was inconclusive [activator, single point].

Q: For `CCOc1ccc(C(C)=O)cc1Cn1c(=O)oc2ccccc21`, which Potency is on record?
A: Its Potency is inconclusive [activator, single point].

Q: For `O=C(OCc1ccc(Cl)cc1Cl)c1cccnc1Cl`, which Potency is on record?
A: The Potency was inconclusive [activator, partial curve].

Q: For `COC(=O)c1ccc(C(=O)NC2CC(C)(C)Cc3c2cnn3-c2ccc(F)cc2)nc1` (centres undefined), which Potency is on record?
A: Its Potency is inconclusive [activator, partial curve].

Q: With `CCC1(c2ccccc2)SC(=O)NC1=O` (centres undefined) as the molecule, how does the Potency read?
A: Its Potency is inconclusive [activator, full curve, poor fit].

Q: With `CCOC(=O)c1cnc(-n2nc(C)cc2C)nc1NNc1cc(C)nc(-c2ccccc2)n1` as the molecule, how does the Potency read?
A: The Potency was inconclusive [activator, single point].

Q: For `Nc1c(-c2ccccn2)cnn1-c1nc(-c2ccc(F)cc2)cs1`, which Potency is on record?
A: The Potency was inconclusive [activator, single point].
